# Results reported in publication PMC4336329 (PLoS ONE, 2015).
# Out of some 310,000 compounds screened, about 2,200 (0.71%) showed an effect of 50% or more. Effects have a minus sign here. This is one part of the list.
# Biological target: human ether-à-go-go-related gene (hERG) potassium channel (human, UniProt Q12809)
# Experiment: primary screen, population patch clamp on CHO cells stably expressing hERG
# Sequence of human ether-à-go-go-related gene (hERG) potassium channel (Q12809 whole entry, looked up): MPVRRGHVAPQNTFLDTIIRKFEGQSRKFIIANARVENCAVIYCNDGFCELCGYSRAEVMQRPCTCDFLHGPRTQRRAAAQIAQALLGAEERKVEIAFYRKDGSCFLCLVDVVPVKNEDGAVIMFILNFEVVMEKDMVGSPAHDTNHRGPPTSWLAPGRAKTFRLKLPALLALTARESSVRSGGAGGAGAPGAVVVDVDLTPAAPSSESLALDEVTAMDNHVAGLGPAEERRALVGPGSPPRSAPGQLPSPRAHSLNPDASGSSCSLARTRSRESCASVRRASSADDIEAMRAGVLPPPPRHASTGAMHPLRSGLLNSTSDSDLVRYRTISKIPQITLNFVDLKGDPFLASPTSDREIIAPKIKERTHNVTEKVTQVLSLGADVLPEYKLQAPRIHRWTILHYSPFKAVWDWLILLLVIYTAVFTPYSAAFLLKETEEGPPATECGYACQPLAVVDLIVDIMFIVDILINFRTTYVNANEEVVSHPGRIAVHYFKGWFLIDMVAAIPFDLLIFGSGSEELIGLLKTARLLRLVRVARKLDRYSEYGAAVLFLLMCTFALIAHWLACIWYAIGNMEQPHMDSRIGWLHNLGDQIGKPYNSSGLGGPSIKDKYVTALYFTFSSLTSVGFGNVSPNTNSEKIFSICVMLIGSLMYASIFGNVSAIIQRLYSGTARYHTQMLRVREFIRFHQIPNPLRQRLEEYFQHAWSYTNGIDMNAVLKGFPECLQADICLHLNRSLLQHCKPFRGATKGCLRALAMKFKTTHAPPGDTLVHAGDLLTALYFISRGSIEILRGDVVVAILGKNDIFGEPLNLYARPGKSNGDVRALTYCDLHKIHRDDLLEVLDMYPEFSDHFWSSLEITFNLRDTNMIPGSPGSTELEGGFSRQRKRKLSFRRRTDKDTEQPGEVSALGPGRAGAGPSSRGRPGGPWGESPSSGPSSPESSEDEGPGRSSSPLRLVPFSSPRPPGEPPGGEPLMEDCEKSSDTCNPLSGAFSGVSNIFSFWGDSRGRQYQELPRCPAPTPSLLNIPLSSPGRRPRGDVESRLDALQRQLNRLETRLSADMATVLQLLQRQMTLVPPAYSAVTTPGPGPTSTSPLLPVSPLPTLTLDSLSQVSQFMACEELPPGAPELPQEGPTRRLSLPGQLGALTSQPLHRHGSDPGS
row,SMILES,"hERG current change (%, negative = inhibition) at 1uM [%]"
1,COC(=O)C1C(=O)C2=C(CC1C)NC(C)=C(C(=O)OC1CCCC1)C2c1ccc(N(C)C)cc1 (stereo not shown),6.86
2,CCOC(=O)c1ccccc1NC(=O)COC(=O)C1CCCC1,9.69
3,O=[N+]([O-])c1cc(S(=O)(=O)N2CCCC2)ccc1N/N=C/c1cccnc1,14
4,O=C(O)c1nn(-c2ccccc2)ccc1=O,8.64
5,Cc1cc(C)n(-c2cc(N3CCN(C(=O)c4ccc(C(C)(C)C)cc4)CC3)ccc2[N+](=O)[O-])n1,3.39
6,COc1ccc(C2C3=C(CC(C)(C)CC3=O)Oc3ncn(CC(C)C)c(=N)c32)cc1 (stereo not shown),-31
7,Cc1ccccc1C(=O)O/N=C(\c1ccccc1)c1ccccn1,-2.7
8,COc1ccc([N+](=O)[O-])cc1NC(=O)C(C)Sc1nc(-c2ccccc2)cs1 (stereo not shown),15.8
9,O=C(CN(C(=O)c1csnn1)c1ccc(F)c(Cl)c1)NCc1ccc(F)cc1,22.8
10,CC1(c2ccc(OC(F)F)cc2)NC(=O)N(CC(=O)Nc2cccc(S(N)(=O)=O)c2)C1=O (stereo not shown),8.76
11,O=C(CN1CCN(c2nc(-c3ccc(F)cc3)cs2)CC1)NCc1ccc2c(c1)OCO2,-17.1
12,COc1cc(OC)cc(C(=O)NCC(=O)Nc2ccc(OC)c(Cl)c2)c1,4.05
13,Oc1ccc(N2CCN(C(c3ccccn3)c3nnnn3C3CCCC3)CC2)cc1 (stereo not shown),-5.57
14,Nc1nonc1C(=O)NCCNC(=O)c1ccc(Cl)cc1,7.86
15,CC(=O)N1CCc2cc(S(=O)(=O)CCC(=O)Nc3ccc(Cl)cc3F)ccc21,11.3
16,Cc1cc(NC(=O)CC(CN(C)S(=O)(=O)c2ccccc2)c2ccccc2)no1 (stereo not shown),-2.11
17,O=C(Nc1cccc(C(F)(F)F)c1)C1CCN(S(=O)(=O)c2cnc[nH]2)CC1,14
18,COc1ccc(CC(=O)OCN2C(=O)c3ccccc3C2=O)cc1OC,14.5
19,Fc1ccc(-c2csc(-c3ccccn3)n2)cc1F,13
20,COc1cc2c(cc1OC)-c1cc(NC3CCCCC3)nc(=O)n1CC2,-0.505
21,CCn1c(=O)c(-[n+]2ccccc2)c(O)c2ccccc21.[Cl-],18.4
22,CCN1CCN(C(C)C(=O)Nc2c(C)n(C)n(-c3ccccc3)c2=O)CC1.O=C(O)C(=O)O (stereo not shown),20.4
23,COc1ccccc1N1CCN(C(CNS(=O)(=O)c2ccccc2)c2ccccc2)CC1 (stereo not shown),15.1
24,Cc1ccc(CNc2ccc3c(c2)OCO3)c(C)c1,0.499
25,CCCCn1c(SCC(=O)c2ccc(OC)c(OC)c2)nc2cc(S(N)(=O)=O)ccc21,6.89
26,C/C=C/CC#N,11.8
27,CC(=O)c1cccc(NC(=O)/C(=C\c2cccnc2)NC(=O)c2ccccc2)c1,4.42
28,CCOc1ccc(-c2ncncc2-c2ccccc2OC)c(O)c1,4.41

row,SMILES,"hERG current change (%, negative = inhibition) at 1uM [%]"
1,CC(C)CN1CCN=C1Nc1ccccc1,9.9
2,COc1ccc2[nH]cc(C(O)CN3CCN(c4ccccc4F)CC3)c2c1 (stereo not shown),8.35
3,CCCCNc1cc(C)nc(N2CCOCC2)n1,-23.5
4,Cn1nnnc1Sc1ncnc2scc(-c3cccc(F)c3)c12,16.9
5,O=C(Nc1cccc(F)c1)Nc1ccccn1,16
6,CCn1c(C)nc2cc(C(=O)NNC(=S)NC(=O)c3ccccc3)ccc21,15.4
7,COc1cc(C2NC(=O)NC(C)=C2C(=O)OC2CCCCC2)cc(Br)c1O (stereo not shown),4.36
8,Cc1ccc(/C=C/C(=O)NCCc2ccccc2)o1,19
9,CC(=O)O[C@@H]1/C=C/[C@](C)(O)C[C@@H](C)C/C=C/[C@H]2[C@H](O)[C@@](C)(O)[C@@H](C)[C@H]3[C@H](Cc4ccccc4)NC(=O)[C@@]312,16.6
10,CC(C)N1CC(O)=C(c2ccccc2)C1=N,10.4
11,COc1ccc(C2/C(=C(/O)c3ccc(C)cc3)C(=O)C(=O)N2c2ccccn2)cc1OC (stereo not shown),14
12,COc1ccc(-c2ocnc2C(=O)Nc2ccccc2N2CCCCC2)cc1,-8.65
13,Cl.Fc1ccc(C2=CSC3=NCCN23)cc1,13.8
14,CCN(CC(=O)Nc1cc(Cl)ccc1C)C(=O)c1nc2nc(C)cc(C)n2n1,6.93
15,Cc1ccc2c(c1)C1(C(=O)N2C)N2CC3(C)CN1CC(C)(C2)C3=O (stereo not shown),15.9
16,Cc1csc(SC(C)C(=O)NCC2CCCCC2)n1 (stereo not shown),17
17,O=C1c2ccccc2C(=O)N1Cc1nc2ccccc2c(=O)n1CCCN1CCOCC1,4.94
18,COc1ccc(C(=O)NCc2ccc(C)cc2)cc1S(=O)(=O)N1CCCC1,8.23
19,CCCNS(=O)(=O)c1ccc(CCC(=O)Nc2ccc3c(c2)OCO3)cc1,9.2
20,COc1cc2c(cc1OC)-c1cc(N3CCCc4ccccc43)nc(=O)n1CC2,8.81
21,COC(=O)c1cc(COC(=O)c2nc3nccc(C)n3n2)oc1C,9.87
22,Cn1c(=O)c2c(ncn2CC(=O)OCC(=O)Nc2ccc(F)cc2F)n(C)c1=O,-0.963
23,O=c1c2ccccc2nc(COc2ccccc2)n1/N=C/c1cc([N+](=O)[O-])ccc1O,3.59
24,c1ccc(Cn2nnc3c(N4CCOCC4)ncnc32)cc1,13.1
25,Nc1nc(Nc2cccc(Cl)c2)nc(NCCO)c1[N+](=O)[O-],-8.78
26,CCOC(=O)C1C(=O)C=C(c2ccc(NS(C)(=O)=O)cc2)CC1c1ccco1 (stereo not shown),-41.9
27,O=S(=O)(Nc1cc(S(=O)(=O)N2CCOCC2)ccc1N1CCOCC1)c1ccc2c(c1)OCCO2,28.4
